# Source: article PMC10480498
# Chains of the proteins cited; added tags and fusions are not shown.
# UniProt P43403: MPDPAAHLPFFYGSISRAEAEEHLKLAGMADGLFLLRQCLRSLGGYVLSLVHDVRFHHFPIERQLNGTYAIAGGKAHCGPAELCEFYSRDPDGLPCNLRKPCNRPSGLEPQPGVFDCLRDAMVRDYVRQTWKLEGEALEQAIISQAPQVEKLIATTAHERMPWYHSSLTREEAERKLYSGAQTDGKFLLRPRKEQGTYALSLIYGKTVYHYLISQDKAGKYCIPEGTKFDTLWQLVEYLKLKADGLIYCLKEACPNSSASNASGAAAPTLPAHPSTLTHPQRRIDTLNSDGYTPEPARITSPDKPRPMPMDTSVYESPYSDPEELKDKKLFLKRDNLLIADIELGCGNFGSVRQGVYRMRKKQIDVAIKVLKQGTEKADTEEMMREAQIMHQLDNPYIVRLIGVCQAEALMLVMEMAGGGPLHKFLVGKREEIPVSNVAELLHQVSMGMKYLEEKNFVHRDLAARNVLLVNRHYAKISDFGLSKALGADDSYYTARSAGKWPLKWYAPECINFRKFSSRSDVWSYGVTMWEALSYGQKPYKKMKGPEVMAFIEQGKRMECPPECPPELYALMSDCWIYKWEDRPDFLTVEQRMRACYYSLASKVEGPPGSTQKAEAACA
# UniProt P06239: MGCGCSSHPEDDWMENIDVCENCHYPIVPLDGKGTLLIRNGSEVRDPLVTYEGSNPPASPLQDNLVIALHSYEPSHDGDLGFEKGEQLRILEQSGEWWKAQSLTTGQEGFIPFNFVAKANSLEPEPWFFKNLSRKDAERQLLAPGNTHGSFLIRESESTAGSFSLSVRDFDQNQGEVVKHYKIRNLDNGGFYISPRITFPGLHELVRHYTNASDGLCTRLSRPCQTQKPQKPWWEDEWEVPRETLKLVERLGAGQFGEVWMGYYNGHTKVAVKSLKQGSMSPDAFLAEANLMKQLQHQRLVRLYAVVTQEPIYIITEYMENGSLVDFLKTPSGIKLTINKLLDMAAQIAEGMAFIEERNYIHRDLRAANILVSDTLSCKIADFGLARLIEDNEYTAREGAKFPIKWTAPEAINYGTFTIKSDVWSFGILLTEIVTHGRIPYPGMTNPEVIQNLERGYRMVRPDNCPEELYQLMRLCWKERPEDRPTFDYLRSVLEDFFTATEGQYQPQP
# No constants are given. Whether binding was seen depends on the method and setting. Binding seen in cells or lysates may run through a third protein. Some results given as binding are weak or reduced against the parent protein; the word gives no strength. For some assays here: Tags and fused reporters may be left off the sequences shown.
# Experiments:
# [1] = target: T1, inositol polyphosphate-5-phosphatase E (INPP5E), endogenous in Jurkat T cells (human (endogenous in Jurkat)) (UniProt Q9NRR6); assay: co-IP; Jurkat T cells activated by crosslinking anti-CD3/CD28 for 2-10 min; lysates (Tris-HCl pH 7.5, 150 mM NaCl, 1 mM EDTA, 1% NP-40) precipitated with anti-INPP5E antibody and protein G agarose at 4 °C overnight; immunoblot; IgG control
# T1 sequence: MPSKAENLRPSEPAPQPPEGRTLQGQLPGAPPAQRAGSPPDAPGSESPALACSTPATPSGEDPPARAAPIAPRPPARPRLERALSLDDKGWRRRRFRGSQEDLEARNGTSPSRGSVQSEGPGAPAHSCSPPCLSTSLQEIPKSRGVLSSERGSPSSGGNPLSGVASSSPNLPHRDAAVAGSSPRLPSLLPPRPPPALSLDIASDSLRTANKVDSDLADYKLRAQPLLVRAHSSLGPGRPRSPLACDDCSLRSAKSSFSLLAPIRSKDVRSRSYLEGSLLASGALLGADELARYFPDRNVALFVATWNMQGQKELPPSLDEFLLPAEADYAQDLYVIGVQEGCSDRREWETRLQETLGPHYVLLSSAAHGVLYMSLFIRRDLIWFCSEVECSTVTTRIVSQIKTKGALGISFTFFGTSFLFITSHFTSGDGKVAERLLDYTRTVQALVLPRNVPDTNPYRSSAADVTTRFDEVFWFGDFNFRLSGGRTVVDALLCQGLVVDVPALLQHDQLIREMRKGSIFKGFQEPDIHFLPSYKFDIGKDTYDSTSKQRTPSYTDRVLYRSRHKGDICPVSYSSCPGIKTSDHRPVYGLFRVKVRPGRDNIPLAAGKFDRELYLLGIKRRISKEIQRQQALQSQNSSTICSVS
# Flag-INPP5E [2] = target: T2, Flag-INPP5E (UniProt Q9NRR6); assay: co-IP; HEK293T co-expressing Flag-INPP5E and either CD3ζ, ZAP-70 or Lck separately; lysates precipitated with anti-Flag antibody and protein G agarose; western blot
# T2 sequence: T1 sequence
# Flag-INPP5E [3] = target: T2, Flag-INPP5E; assay: co-IP; HEK293T transfected with CD3ζ-GFP, Lck, ZAP-70-Myc and Flag-INPP5E together; lysates (20 mM Tris-HCl pH 7.5, 150 mM NaCl, 1 mM EDTA, 1% NP-40) precipitated with anti-Flag antibody and protein G agarose; western blot
# [4] = target: T3, Flag-INPP5E C-terminal region (amino acids 288–644) (UniProt Q9NRR6); assay: co-IP; INPP5E truncations (1-289, 288-644) tested for pulling down CD3ζ-GFP (Supplementary Fig. 3b); cells and antibody not given
# T3 sequence: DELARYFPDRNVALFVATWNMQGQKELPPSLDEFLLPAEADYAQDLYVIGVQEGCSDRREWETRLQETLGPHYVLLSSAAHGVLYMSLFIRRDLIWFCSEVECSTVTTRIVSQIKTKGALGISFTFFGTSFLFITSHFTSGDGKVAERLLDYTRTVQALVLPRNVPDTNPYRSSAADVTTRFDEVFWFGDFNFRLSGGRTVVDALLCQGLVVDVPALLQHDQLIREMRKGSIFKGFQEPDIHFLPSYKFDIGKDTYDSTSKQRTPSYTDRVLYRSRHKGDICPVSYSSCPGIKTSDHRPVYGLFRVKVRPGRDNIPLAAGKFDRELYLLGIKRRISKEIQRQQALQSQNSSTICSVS
# [5] = target: T4, Flag-INPP5E N-terminal region (amino acids 1–289) (UniProt Q9NRR6); assay: as above
# T4 sequence: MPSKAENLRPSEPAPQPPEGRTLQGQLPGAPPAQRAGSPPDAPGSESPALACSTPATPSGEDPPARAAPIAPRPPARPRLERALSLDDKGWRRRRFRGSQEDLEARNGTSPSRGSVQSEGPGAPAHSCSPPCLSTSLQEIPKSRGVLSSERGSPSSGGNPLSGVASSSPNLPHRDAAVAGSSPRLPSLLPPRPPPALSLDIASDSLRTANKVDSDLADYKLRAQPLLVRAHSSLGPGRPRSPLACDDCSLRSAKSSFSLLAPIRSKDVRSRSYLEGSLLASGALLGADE
Substance,binding [1],binding (Flag-INPP5E [2]),binding (Flag-INPP5E [3]),binding [4],binding [5]
"ZAP-70 (zeta-chain-associated protein kinase 70), endogenous in Jurkat T cells (from UniProt P43403 1-619) (enzyme)",binds,–,–,–,–
CD3ζ-GFP (from UniProt P20963-1 22-164) (receptor),–,binds,binds,binds,no binding
"Lck, endogenous in Jurkat T cells (from UniProt P06239 1-509) (enzyme)",binds,–,–,–,–
Lck (expressed in HEK293T) (from UniProt P06239 1-509) (enzyme),–,binds,binds,–,–

# Further lines, results first:
binding [1],binding (Flag-INPP5E [2]),binding (Flag-INPP5E [3]),binding [4],binding [5],Substance
–,binds,binds,–,–,ZAP-70-Myc (from UniProt P43403 1-619) (enzyme)
binds,–,–,–,–,"CD3ζ, endogenous in Jurkat T cells (from UniProt P20963-1 22-164) (receptor)"
